This is an account of results in PubChem BioAssay (NCI).

Where “and” joins values, the source holds several entries; their conditions need not be identical. Equal entries are not always repeated.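 In this assay, cells in 96-well plates receive the compound at five concentrations for 48 hours. Endpoints are linearly interpolated between the surrounding concentrations. GI50 marks 50% less growth. TGI denotes the concentration required for complete inhibition of growth.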 Bounds are passed on as bounds.

This assay has as its system NCI-H322M lung. In words: growth of human tumour cells (NCI), 48 h.

In the case of `CCOP(C)(=O)/C(Cc1ccc(OC)c(OC)c1)=N\O` (stereo unspecified), the TGI is greater than 100 µM.

As for `O=c1cc(O)c2c(O)cc(O)cc2o1`, the TGI is greater than 100 µM.

In the case of `COc1ccc(/C=C(/c2ccccc2)c2c(C)cc(C)c(/C(=C\c3ccc(OC)cc3)c3ccccc3)c2N=Nc2cc(C)cc(C)c2)cc1`, the TGI was greater than 100 µM.

For `C#CC(=O)OCC#CCOC(=O)C#C`, the TGI was greater than 100 µM.

The compound `COc1ccccc1/C=C/c1nc2ccccc2o1` returned a TGI greater than 10 µM.

In the case of `COC(=O)[C@@H](OC)[C@@H]1Cc2cc3cc(OC4CC(OC5CC(O)C(O)C(C)O5)C(O)C(C)O4)c(C)c(O)c3c(O)c2C(=O)[C@H]1OC1CC(OC2CC(OC3CC(C)(O)C(O)C(C)O3)C(O)C(C)O2)C(O)C(C)O1` (stereo partly specified), the GI50 is 0.0378 µM and the TGI turned out to be 0.218 µM.

On to `CCN(Cc1cccc(F)c1F)c1ccc(CO)c(Cl)c1`, for which the GI50 was 5.98 µM and the TGI came out at 34.6 µM.

For `C[C@]12CCc3sc(-c4cccc(F)c4)nc3C1=CC[C@@H]1[C@@H]2CC[C@]2(C)C(=O)CC[C@@H]12`, the GI50 was 3.06 µM and the TGI was greater than 100 µM.

`CC(=O)OC1[C@@H](OC(C)=O)CN(OCc2ccccc2)C[C@H]1OC(C)=O` (stereo partly specified) came in with a TGI greater than 100 µM.

Consider `NC(N)=NS(=O)(=O)c1ccc(NC(=O)c2ccc3nc4ccccc4c(N)c3c2)cc1`, for which the TGI was greater than 100 µM.

With `CC12CCC(O)CC1=CCC1C2CCC2(C)C(c3cccnc3)=CCC12` (stereo unspecified), the GI50 is greater than 100 µM and the TGI is greater than 100 µM.

Consider `Nc1cc2nc3ccccc3oc-2cc1=O`, for which the GI50 was 4.76 µM and the TGI worked out at 10.5 µM.

With `CCN(CC)CC(=O)Nc1ccc2c(c1)C(=O)c1ccc(NC(=O)CN(CC)CC)cc1C2=O`, the TGI is greater than 100 µM.

Compound `COC(=O)c1ccc(C)cc1CC1Cc2c(C)cccc2C1=O` (stereo unspecified) registered a TGI greater than 83.8 µM.

For `CC(=O)c1cccc(NC(=O)c2ccc(NC3=C(Cl)C(=O)N(Cc4ccccc4)C3=O)cc2)c1`, the GI50 is 17.9 µM and the TGI amounted to 39.4 µM.

`CCCCS(=O)CC(CO)NC(=O)/C=C/c1c(C)[nH]c(=O)[nH]c1=O` (stereo unspecified) yielded a TGI of 34.3 µM.

With `O=S(=O)(NCCO)c1cc[c]([Sb](=[O])([OH])[OH])cc1`, the GI50 was greater than 100 µM and the TGI was greater than 100 µM.

For `O=C1c2c(c3c4ccccc4[nH]c3c3[nH]c4ccccc4c23)C(=O)N1Cc1ccccc1`, the TGI stood at 12.7 µM.

For `CC(=O)/C(=C\c1c(-c2ccccc2)[nH]c2ccccc12)S(=O)(=O)c1ccccc1`, the GI50 was 5.83 µM and the TGI was found to be 20.8 µM.

On to `CN1CCN(c2ccc(C(=O)Nc3cccc(C#Cc4cccc5[nH]nc(N)c45)c3)cc2C(F)(F)F)CC1`, for which the GI50 is 1.19 µM and the TGI was 4.23 µM.

Consider `CN(C)CCNc1nc2ccccc2c2occc12`, for which the GI50 is 61.9 µM and the TGI is greater than 100 µM.

As to `O=C(c1ccccc1)c1nn(-c2ccccc2)c2nc3nc(-c4ccccc4)cc(=O)n3nc12`, the GI50 is 22.4 µM and the TGI came to 48.3 µM.

As to `Cc1cc2c(C(C)C)c(O)c(O)c(C=Nc3ccccc3)c2c(O)c1-c1c(C)cc2c(C(C)C)c(O)c(O)c(C=Nc3ccccc3)c2c1O`, the TGI was greater than 100 µM.

Turning to `CC1=C/C(=C2/N=C(N(C)C)SS2)C(C)=N1`, the TGI was greater than 100 µM.

Compound `CC(=O)OC1[C@H](n2ccnc2)C[C@H]2[C@@H]3CC=C4CC(N5CCCC5)CC[C@]4(C)[C@H]3CC[C@]12C` (stereo partly specified) registered a TGI greater than 100 µM.

With `COc1ccc(/C=C2\CN(C)CC3C2=NN(c2ccccc2)C3c2ccc(OC)cc2)cc1` (stereo unspecified), the TGI is greater than 100 µM.

In turn, `Cc1cc(NS(=O)(=O)c2ccc(NC(=O)COC(=O)c3cccc4c(=O)c5ccccc5[nH]c34)cc2)no1` registered a TGI greater than 100 µM.

On to `Cc1cc2c(=O)[nH]c(N)nc2nc1C`, for which the TGI was greater than 100 µM.

`Cn1c(=O)c2nc(NCCO)cnc2n(C)c1=O` registered a TGI greater than 100 µM.

With `Cn1c2ccccc2c2nnc(NNCc3ccccn3)nc21`, the GI50 is 0.404 µM and the TGI is 12.5 µM.

In the case of `Cc1cc2c(cc1C)[n+](Cc1ccc3ccccc3n1)cn2Cc1ccc2ccccc2n1`, the GI50 is 1.37 µM and the TGI came to 8.62 µM.

Turning to `N#CCCN(CCC#N)c1ccc(C(N=Nc2ccc(Cl)cc2)=Nc2ccc(Cl)cc2)cc1`, the TGI is greater than 100 µM.

The compound `C#C/C=C/CC1OC(C(Br)CC)CC(Br)C2CC1O2` (stereo unspecified) gave a TGI greater than 100 µM.

Regarding `CN1C(=O)C(=CN(C)c2ccccc2)C(=O)N(C)C1=O`, the TGI was greater than 100 µM.

With `Cc1[nH]c(=O)nc(N(CCO)/N=C/c2ccc(Cl)cc2)c1C(=O)Nc1ccc(Cl)cc1`, the TGI was greater than 100 µM.

In the case of `Nc1c2c(nc3ccccc13)CCCc1ccccc1-2`, the TGI was found to be 27.6 µM.

On to `O=C1CSC(C(N=Nc2ccc(Cl)cc2)c2nc3ccccc3[nH]2)=N1` (stereo unspecified), for which the TGI is greater than 100 µM.

As to `NC(=S)N/N=C1\CCCCC1C(O)(C(F)(F)Cl)C(F)(F)Cl` (stereo unspecified), the TGI is greater than 10 µM.

Regarding `CCN(CC)CCCNc1[nH]ncc2c(C)c3nc4ccccc4c3cc12`, the GI50 is 1.13 µM; the TGI was 5.75 µM and 4.09 µM.

Take `COc1ccc2c(c1)CCN1C3=C(CCC3)C(=O)C[C@@H]21`: the TGI was greater than 100 µM.

With `COc1cc2cc(C(=O)N3CC(CCl)c4c3cc(O)c3ccccc43)[nH]c2c(OC)c1OC` (stereo unspecified), the TGI was 5.86 µM.

Compound `S=C(c1c[nH]c2ccccc12)N1CCCCC1` gave a TGI greater than 100 µM.

As to `CC#CCCCC1(C)CCCNC1=S` (stereo unspecified), the TGI is greater than 10 µM.

Turning to `CC1CC(C(=O)OC2OC(COC3OC(CO)C(OC4OC(C)C(O)C(O)C4O)C(O)C3O)C(O)C(O)C2O)C2CCC3(C)C(=CCC4(C)C3CCC3C(C)(CO)C(O)C(O)CC34C)C2C1C` (stereo unspecified), the TGI was greater than 100 µM.

Regarding `CCOC(=O)N1N(c2ccccc2)C(=O)C1(c1ccccc1)c1ccccc1`, the TGI is greater than 100 µM.

For the compound `CC(C)[C@](O)(C(=O)OCC1=CCN2CC[C@@H](O)[C@@H]12)[C@H](C)O`, the TGI is greater than 375 µM.

`Cc1cc2c(=O)cc(-c3ccc(F)cc3)oc2c(C(=O)O)c1C`: the TGI is greater than 100 µM.

As to `COc1ccc(N(C(=O)NCCO)c2ccccc2)cc1`, the TGI is greater than 100 µM.

Regarding `Cc1c(-c2ccc(O)c(O)c2)oc(=O)c2c(O)cccc12`, the TGI was 52.3 µM.

With `COc1cc(Nc2nc3ccccc3nc2C(C)C)cc(OC)c1OC`, the TGI was greater than 100 µM.

As for `O=C1CCCC2=C1CC1=C(CCCC1=O)N2c1cccc([N+](=O)[O-])c1`, the TGI is greater than 100 µM.

In turn, `C/C=C1\CCC2c3[nH]c4ccccc4c3CCN2C1` (stereo unspecified) had a TGI greater than 100 µM.

In the case of `O=C1N[C@H]2[C@H](O)[C@H](O)[C@@H](O)[C@H](O)[C@@H]2c2cc3c(c(O)c21)OCO3`, the GI50 is 0.254 µM and 0.211 µM.

`CCCCCCCCCCCCCCCCOc1ccc(/C=C/C2=[N+](CCCl)CCO2)cc1` displayed a TGI greater than 100 µM.

The compound `Cc1ccc(C)c(COCCOCn2c(=O)[nH]c(=O)c3cc(Br)ccc32)c1` registered a TGI greater than 100 µM.

On to `Cc1cn2c(/C=N/N=C(N)N)c(-c3ccsc3)nc2s1`, for which the GI50 is 10.9 µM and the TGI stood at 25.6 µM.

Take `O=Nc1c(O)c2ccccc2c2ccccc12`: the GI50 is 1.82 µM and the TGI is 3.39 µM.

`COc1cc(C2C3=C(COC3=O)Nc3cc4c(cc32)OCO4)cc2c1OCO2` (stereo unspecified): the GI50 was 0.233 µM and the TGI was greater than 100 µM.

Regarding `CC1(C)N=C(N)N=C(N)N1c1ccc(Cl)c(Cl)c1`, the GI50 is 4.62 µM and the TGI is greater than 100 µM.

Consider `CCN1C(=O)N(CC)C2C1NN=c1s/c(=C\c3cccc([N+](=O)[O-])c3)c(=O)n12` (stereo unspecified), for which the GI50 is 0.678 µM and the TGI is greater than 100 µM.

As for `Oc1c(CNCCNCc2cc(Cl)cc(Cc3ccccc3)c2O)cc(Cl)cc1Cc1ccccc1`, the GI50 is 0.167 µM and the TGI was 56.7 µM.

Take `CC(OC(=O)N(N(CCCl)S(C)(=O)=O)S(C)(=O)=O)c1ccc([N+](=O)[O-])cc1` (stereo unspecified): the GI50 was greater than 82.7 µM and the TGI was greater than 100 µM.

On to `O=C(Nc1cccc(-n2cc(-c3ccncc3)c(-c3ccc(O)c(Cl)c3)n2)c1)c1ccc(Cl)c(Cl)c1`, for which the GI50 is 58.4 µM and the TGI was greater than 100 µM.

In the case of `O=C1C2CC=CCC2C(=O)N1n1c(Cc2ccccc2)n[nH]c1=O` (stereo unspecified), the TGI was greater than 100 µM.

On to `COC(=O)C1=COc2c(n(C)c3ccccc23)-c2ccccc21`, for which the TGI is greater than 100 µM.

Turning to `O=C(Sc1sc(=S)sc1SC(=O)c1ccccc1)c1ccccc1`, the TGI worked out at 45.8 µM.

`Cc1ncc(-c2ccnc(Nc3ccc(S(C)(=O)=O)cc3)n2)n1C(C)C`: the GI50 is 1.91 µM and the TGI was greater than 9.14 µM.

The compound `Cc1cc(NS(=O)(=O)c2ccc(Nc3c4ccccc4nc4c(C(=O)Nc5ccc(S(=O)(=O)N=C(N)N)cc5)ccc(Cl)c34)cc2)no1` came in with a TGI of 60.4 µM.

Consider `Cc1ccc2c(CC(=O)O)cc(=O)oc2c1`, for which the TGI is greater than 100 µM.

As for `COc1cc(NC(C)CCCN)c2ncccc2c1Sc1ccc(Cl)cc1` (stereo unspecified), the GI50 was 2.93 µM.

For the compound `O=[p+]1c2ccccc2[nH]c2ccccc21`, the TGI is greater than 100 µM.

`C/C(=C1\C(=O)C(c2ccccc2)N(c2ccccc2)C1=O)c1ccc(Cl)cc1` (stereo unspecified) had a TGI of 36 µM.

Turning to `CCN(CC)CCNC(=O)c1nn(-c2ccc(Cl)cc2)c2c1CCc1cc(OC)ccc1-2`, the TGI was found to be 21.7 µM.

`NC(=O)SCC(=O)Nc1ccc2ncccc2c1` yielded a TGI greater than 100 µM.

As for `CC(C)(O)CCc1ccc(O)c2c(=O)c3c(O)c4c(cc3oc12)O[C@H]1OC=C[C@@]41O`, the TGI is 0.125 µM.

On to `CN(C)c1ccc(C(=C2C=CC(=[N+](C)C)C=C2)c2ccccc2Cl)cc1`, for which the GI50 was 0.327 µM and the TGI is 2.17 µM.

As to `CSc1nc(N)c2c(n1)NC(c1ccccc1)C1CCc3ccccc3C1=N2` (stereo unspecified), the GI50 was greater than 100 µM and the TGI is greater than 100 µM.

With `Cc1ccc(S(=O)(=O)SCc2ccccc2)cc1`, the TGI is greater than 100 µM.

Compound `NC(CO)C(=O)NCC(=O)O` (stereo unspecified) gave a TGI greater than 100 µM.

Take `CC(=O)c1ccc2c(c1)N(CCCN(C)C)c1ccccc1S2`: the GI50 was 16.2 µM and the TGI worked out at 32.3 µM.

With `CN(C)CCOc1ccc(-c2cc(-c3ccc4c(c3)CC/C4=N\O)c(-c3ccncc3)o2)cc1`, the GI50 is 4.42 µM and the TGI worked out at 9.28 µM.

For the compound `O=P1(Oc2ccccc2)NCc2ncccc2O1` (stereo unspecified), the TGI was greater than 100 µM.

On to `CCCCN1C(=O)CS/C1=N/Nc1nc2c([nH]1)c(=O)n(C)c(=O)n2C`, for which the TGI is greater than 100 µM.

`CCc1ncnc2cc(OCC3CO3)c(OC)cc12` (stereo unspecified): the TGI amounted to 79 µM.
